From ChEMBL document CHEMBL4888484, “Replenishing the malaria drug discovery pipeline: Screening and hit evaluation of the MMV Hit Generation Library 1 (HGL1) against asexual blood stage Plasmodium falciparum ,using a nano luciferase reporter read-out” (2022)
The campaign covered roughly 150,000 compounds. About 540 (0.36%) showed an effect of 50% or more. This is one part of the list.

Each compound was assayed on Plasmodium falciparum (assay: Primary screen in NF54 nanoGlo assay, in single point, at 2uM, 72h; a lower Z score goes with more inhibition). Settings: timepoint 72 hour.
Assay type: functional, Erythrocyte

SMILES | % Inhibition | Z score
c1cn(C[C@H]2CCCCN2CCCN2CCCCC2)nn1 | -10% | 1
CN(Cc1ccccc1)C[C@H]1CCCN(CCO)C1 | -11% | 1.81
NC(=O)N[C@H]1CCN(C(=O)CCc2ccccc2N2CCOCC2)C1 | -3% | 0.57
COc1ccc(CCNC(=O)N2C(=O)CCC2=O)cc1OC | -15% | 2.05
O=C(NC1(c2ccc(F)cc2F)CCCCC1)c1cc[nH]c(=O)c1 | -10% | 1.37
CC[C@@H](C(=O)N1CCn2cncc2C1)n1cccn1 | 4% | -0.76
FC(F)(F)c1cc(Oc2ncnc3[nH]ccc23)ccc1Cl | 6% | -1.16
Cc1cccnc1[C@@H](NC(=O)Nc1ccn(CCN(C)C)n1)C(C)C | -7% | 1.37
COc1ccc(N[C@H]2CC(=O)N(c3cccc(Cl)c3C)C2=O)cc1S(=O)(=O)N1CCOCC1 | -8% | 1.12
CCCN1CCC(c2nnc3n2CCN(C(=O)Nc2cccc(C)c2C)C3)CC1 | -3% | 0.51
COc1ncccc1-c1nc(-c2cccc(NC(=O)c3ccccc3F)c2)no1 | -4% | 0.55
CCCCn1nc(C(=O)N2CCNC(=O)C2)ccc1=O | -7% | 1.16
COC(=O)[C@@]12CCCC[C@@H]1CN(S(=O)(=O)N(C)C)C2 | -5% | 0.78
C[C@H](NC(=O)c1coc(COc2cccc(F)c2)n1)c1nnn[nH]1 | -1% | 0.19
O=C([C@H](O)c1cccnc1)N1CCn2c(cnc2C(F)(F)F)C1 | -3% | 0.47
O=C(CCc1ccccc1)Nc1[nH]nnc1C(=O)N1CCCC1 | -6% | 0.87
COC(=O)CN(CC(=O)OC(C)(C)C)C(=O)COCC1CC1 | -5% | 0.63
COc1ccccc1CN1C(=O)CN(c2ccccc2)C(=O)[C@@H]1c1ccncc1 | -1% | 0.18
COCCOC1CCC(C(=O)Nc2ccc(C)nc2O)CC1 (stereo not given) | 2% | -0.19
O=S(=O)(Nc1cccc(-c2nnc3n2CCC3)c1)c1ccc(F)cc1F | -4% | 0.5
C[C@H]1CN(C(=O)COC(=O)c2ccc3c(c2)OCCCO3)CCO1 | 0% | 0.05
CCN(C(=O)c1cc[nH]c(=O)c1)[C@@H](Cc1ccc(F)cc1)C(C)C | -4% | 0.55

SMILES | % Inhibition | Z score
COc1cccc(CNC(=O)NCCc2nc3cccnc3n2Cc2ccccc2)c1 | -32% | 2.86
COc1cccc(C(=O)N2CCN(C(=O)CCc3ccccn3)CC2)c1 | 9% | -1.2
Cc1ccc(C(=O)N2CCC[C@@](O)(C(F)(F)F)C2)nc1C | -2% | 0.33
O=C(COC[C@H]1CCCO1)Nc1cc2ccccc2nn1 | -8% | 0.93
C=CCNC(=O)C1CC(c2ccccc2)CN(C(=O)c2ccc(OC)cc2)C1 (stereo not given) | -1% | 0.24
CC=C(C)c1nc(C2(S(C)(=O)=O)CC2)no1 | 3% | -0.45
CCc1ccc(OCCN(C)C(=O)c2n[nH]c3c2CCC3)cc1 | -17% | 1.65
CCc1nc(N2CCC(CNC(=O)[C@H]3CCOC3)CC2)no1 | 2% | -0.38
CCc1ccc(-n2c(=O)[nH]c3c(c2=O)C(CC)(CC)Cc2ccccc2-3)cc1 | 1% | -0.1
COc1cc(=O)n2c(c1C(=O)N(C)Cc1nonc1C)CCN(C(=O)CC1CCCCC1)CC2 | -13% | 1.85
O=S(=O)(c1ccc(F)cc1F)N1CCC[C@@H]1Cc1noc(-c2ccccc2)n1 | -2% | 0.35
Cc1cc(C)c(C(=O)N2CCC[C@H](C(=O)N3CCN(c4cccc(Cl)c4)CC3)C2)[nH]1 | -8% | 1.06
O=C(CN(Cc1ccccc1)[C@@H](CO)C1CC1)Nc1ccnn1C1CCCC1 | 28% | -3.21
Cc1ccc(C(C)NC(C)C(=O)O)cc1F (stereo not given) | -11% | 1.41
CC(NC(c1ccc(C2CCCCC2)cc1)C(C)C)c1nc2ccccc2c(=O)[nH]1 (stereo not given) | -12% | 1.87
CC(C)(O)CCc1ccc(CN2CCNC(=O)[C@@H]2Cc2ccccc2)cc1 | -3% | 0.42
CCc1nc(NCCN2CCS(=O)(=O)CC2)c2ccsc2n1 | -1% | 0.14
COc1cccc(OC)c1-c1noc([C@H](C)n2nc(C)cc2C)n1 | 12% | -1.58
CCc1nsc(N2CCc3cc(OC)c(OC)cc3C2)n1 | -5% | 0.69
NC(=O)c1cc2c(nc1-c1ccc3c(c1)OCO3)CCC2 | 5% | -0.71
Cn1cc(OCc2cccc(Cl)c2)cn1 | -20% | 2.22
CN(C[C@H]1CCCOC1)C(=O)Nc1scc(C(C)(C)C)c1C#N | -12% | 1.64

SMILES | % Inhibition | Z score
CC1(C)CN(c2ccnc(C(=O)NCc3ccc4c(c3)OCO4)c2)CCO1 | 6% | -0.89
CCOC(=O)C(F)(F)C1(O)CCN(c2nc(C)ns2)CC1 | 0% | 0.09
Cn1cccc1C(=O)NCc1ccccn1 | -5% | 0.57
O=C1OCC2(CCN(Cc3cccc4nonc34)CC2)O1 | 0% | -0.09
CCn1ncc2ncn(CC(=O)C(C)(C)C)c(=O)c21 | -5% | 0.75
COc1ccc(Cc2noc([C@@]3(C)CCNC(=O)C3)n2)cc1F | -1% | 0.12
CC(C)CCC[C@H]1CN(Cc2c[nH]cn2)CCO1 | -4% | 0.61
O=C(Nc1ccc(F)c(Cl)c1)c1sccc1S(=O)(=O)N1CCc2ccccc2C1 | -3% | 0.41
C=CCOC[C@@H](O)CN(CCOC)Cc1cc(OC)cc(OC)c1 | 4% | -0.6
CC(C)Cc1nc([C@@H]2CCCCN2)n(CC(F)(F)F)n1 | -14% | 1.76
O=C(O)C1ON(c2ccccc2)C(c2ccccc2)C1C(=O)Nc1ccc(F)cc1 (stereo not given) | 1% | -0.18
O=C(c1c(F)cccc1F)N1CCN(c2ccc(-n3ccnc3)nn2)CC1 | -16% | 3.05
O=C(C1CCN(C2CCN(CCCc3ccccc3)CC2)CC1)N1CCCOCC1 | -3% | 0.41
C[C@H](OC(=O)c1ccc(N2C(=O)c3ccccc3C2=O)cc1)C(=O)N1CCc2ccccc21 | -4% | 0.74
O=C(COc1ccc(Cl)cc1)NC1CCN(Cc2ccccc2)CC1 | -10% | 0.93
FC(F)CN1CCCN(Cc2nc3ccccc3[nH]2)CC1 | 7% | -1.23
CC1CCCC(OC(C)C(=O)N2CC[S+]([O-])C(C)C2C)C1 (stereo not given) | -13% | 1.11
c1ccc(-c2nnc(N3C[C@H]4CCN[C@H]4C3)s2)cc1 | -4% | 0.81
COc1ccc(CNC(=O)c2cccn2-c2cccnc2C)cc1OC | -5% | 0.55
CCC(=O)NC[C@@H](O)Cc1ccc(F)cc1F | -5% | 0.5
COc1ccc(C)cc1-n1c([C@H]2CC(=O)N(Cc3ccccc3)C2)n[nH]c1=O | -7% | 1.08
CCc1ccnc(C(=O)N[C@H]2CCC[C@H]2Cn2ccnn2)c1 | -6% | 0.66

SMILES | % Inhibition | Z score
COc1ccc(F)cc1CN1CCN(S(=O)(=O)N2CCCCCC2)CC1 | -8% | 0.95
CNC(=O)C1CCN(CC(=O)N2CCCCCCC2)CC1 | 3% | -0.37
CC(C)Oc1cc(-c2ccc(C(=O)N[C@@H](C)Cn3cccn3)cc2)nc(N)n1 | -16% | 3.03
Cc1cc(-c2ccc(S(=O)(=O)NC3CCN(Cc4ccccc4)CC3)c(C)c2)on1 | -9% | 1.45
COCCCN(C[C@@H]1CCCN2CCCC[C@H]12)C(=O)COc1cn(C)c(C)cc1=O | -1% | 0.17
CC(C)[C@H](NCc1cc(C(N)=O)cs1)C(C)(C)O | 1% | -0.15
Cc1nccn1C[C@H](O)COc1ccccc1Cl | 2% | -0.27
CCC(CC)[C@@H](O)CNC(=O)NCc1nc(C(F)F)no1 | -11% | 1.67
Cc1nc(NCc2c(F)cccc2F)sc1-c1ccn(Cc2ccsc2)n1 | -3% | 0.45
CCOCCC1(CNC(=O)[C@H]2CC(=O)N(C)C2)CCCC1 | -4% | 0.34
CCc1cc(N2CCC(NCc3n[nH]c4c3CCC4)CC2)nc(N(C)C)n1 | 9% | -1.62
O=C(OC[C@H]1CCCCN1C(=O)c1cc2cccc(F)c2o1)N1CCOCC1 | 3% | -0.42
Cc1cccc(NC(=O)N2C[C@@H]3CC[C@H]2CN(Cc2ccccn2)C3)c1C | -2% | 0.27
CCCc1nc2cc(CCC(=O)Nc3cc(Cl)c(OC)cc3OC)ccc2[nH]1 | -3% | 0.41
c1cnc(N2CCC3(CCCC3)CC2)cn1 | 5% | -0.45
CCC(CC)n1ccc(C(=O)O[C@@H](C)c2ccccn2)n1 | -1% | 0.12
CCOC(=O)C1(CC2CC2)CCN(Cc2cnc(-c3ccc(Cl)cc3)nc2)CC1 | 1% | -0.26
C[C@H](N[C@H]1CC[C@@H](CO)CC1)c1cc(Cl)cc(Cl)c1 | -8% | 0.73
CN(CCC[C@H]1CCCO1)C(=O)Nc1cccnc1Oc1ccc(F)cc1 | -7% | 0.95
